Data: PubChem BioAssay AID1347417 (National Center for Advancing Translational Sciences (NCATS), 2020)
The whole screen tested about 120,000 compounds, of which about 5,300 (4.4%) were called active. This list was built around the results that the source calls inconclusive (neither active nor inactive); the mix of calls is not that of the screen. Calls come from the whole dose curve; as a rule, active = well fitted inhibition curve with a large enough effect; inconclusive = small, poorly fitted or top-dose-only effect; inactive = no such curve, though single readings can be large or run the other way. Where the call is inconclusive, the potency comes from a doubtful curve fit.

experiment: qHTS Primary assay for Inhibitors of Plasmodium falciparum Dd2 growth in vitro; note: nearly all actives have a fitted effect of over 65% in size;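 for activity, negative = inhibition: plate controls were DMSO vehicle for no effect and reference drug for full effect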; conditions: P. falciparum Dd2 growth, SYBR Green, 72 h; activity, negative = inhibition: at 28.9 µM (top of the series) unless noted; series mostly up to 28.9 µM
Outline: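 Infected erythrocytes (Dd2, 0.3% parasitemia, 2.5% hematocrit final) are added to compound in RPMI-1640/Albumax II medium, grown 72 h at 37C in low oxygen, then lysed with saponin/Triton-X containing SYBR Green and read by fluorescence.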
Potency is the fitted concentration of half-maximal effect; tags give direction and shape of the fitted curve.

| Compound | Potency | activity, negative = inhibition | outcome |
| --- | --- | --- | --- |
| COc1ccc(C(=O)N2CC[C@H](CO)[C@H](NC(=O)C3CC3)C2)cn1 | inconclusive: 1.12 µM [inhibitor, partial curve, poor fit] |  |  |
| Cc1cccc2c1-c1sc(C(=O)NCCCN3CCN(c4ccccc4F)CC3)cc1CO2 | inconclusive: 17.8 µM [inhibitor, single point] |  |  |
| Cc1nccn1CCN(C)c1ccc(-c2nc(COc3ccccc3)no2)cn1 | inconclusive: 10 µM [inhibitor, single point] |  |  |
| CCOc1ccc(C(=O)/C=C/c2cn(CC(O)CN3CCc4ccccc43)c3ccccc23)cc1 (stereo not given) | inconclusive: 0.794 µM [inhibitor, partial curve, poor fit] |  |  |
| Cc1cc(C)cc(N2C(=O)N(Cc3cc(=O)n4ccccc4n3)c3ccccc3S2(=O)=O)c1 | inconclusive: 8.91 µM [inhibitor, partial curve] |  |  |
| Cc1ccc(-c2c(C(=O)N3CCN(c4ccc(F)cc4)CC3)oc(=O)c3ccccc23)cc1 | inconclusive: 10 µM [inhibitor, single point] |  |  |
| CNC(=O)N1CCC(C2CCN(C(=O)CCc3ccccc3)C2)CC1 (stereo not given) | inconclusive: 10 µM [inhibitor, single point] |  |  |
| O=[S+]1([O-])NCC2(CCCN(Cc3ccncc3)C2)Oc2ncccc21 (stereo not given) |  | inactive: 116% |  |
| CCOc1ccc(CN2CCN(Cc3ccc4c(c3)c3ccccc3n4CC)CC2)cc1 | inconclusive: 7.94 µM [inhibitor, partial curve, poor fit] |  |  |
| COc1ccc(-c2cc(N3CCCC(NC(=O)c4cccc(OC)c4)C3)n[nH]2)cc1 (stereo not given) | inconclusive: 3.98 µM [inhibitor, single point] |  |  |
| Cc1cc(Cn2cc3c4c(cccc42)[C@H](CC(C)C)N[C@H](C(=O)NCc2ccco2)C3)no1 | inconclusive: 12.6 µM [inhibitor, single point] |  |  |
| O=C1NC(C(=O)Nc2ccccc2F)Cn2cccc21 (stereo not given) |  | inactive: 24.4% |  |
| COc1ccc(C(=O)Nc2ccc3nc4c(c(Nc5ccccc5OC)c3c2)CCCC4)c(OC)c1 | inconclusive: 1 µM [inhibitor, partial curve, poor fit] |  |  |
| CCNC(=O)N1CCC(OC2CCN(S(C)(=O)=O)CC2)CC1 |  | inactive: 9.96% |  |
| CCc1ccc(C(=O)N2CCCN(c3nnc4ccccn34)CC2)cc1 |  | inactive: -13.2% |  |
| Cc1ccc(NC(=O)c2oc3ccc(S(=O)(=O)N4CCOCC4)cc3c2C)c(C)c1 | inconclusive: 12.6 µM [inhibitor, single point] |  |  |
| O=[S+]([O-])(c1cccnc1)c1nnn2c1nc(N1CCOCC1)c1ccccc12 | inconclusive: 12.6 µM [inhibitor, single point] |  |  |
| CCOC(=O)C1CCCN(c2c(C(=O)c3ccccc3)cnc3ccc(F)cc23)C1 (stereo not given) | inconclusive: 17.8 µM [inhibitor, single point] |  |  |
| O=C(C[C@@H]1C[C@H]2O[C@H](CNC3CCNCC3)[C@@H](O)[C@H]2O1)N1CCC(F)(F)C1 |  | inactive: -3.1% |  |
| CN1c2cc(C(=O)Nc3ccc(C(F)(F)F)cc3)ccc2C(=O)N2CCCCC21 (stereo not given) | inconclusive: 0.0708 µM [inhibitor, full curve, poor fit] |  |  |
| Cc1ccccc1C(=O)Nc1sc2c(c1C(=O)N1CCC(C)CC1)CCC(C)C2 (stereo not given) | inconclusive: 10 µM [inhibitor, single point] |  |  |
| CCOc1cc2[nH]c(=O)n(CCCCC(=O)N3CCN(c4ccccc4OC)CC3)c(=O)c2cc1OCC | inconclusive: 3.98 µM [inhibitor, partial curve] |  |  |

| Compound | Potency | activity, negative = inhibition | outcome |
| --- | --- | --- | --- |
| COc1cccc(C(=O)CC2(O)C(=O)N(Cc3ccccc3)c3ccccc32)c1 (stereo not given) | inconclusive: 20 µM [inhibitor, partial curve, poor fit] |  |  |
| COc1ccc(C2NC(=O)N(CC3CC3)C3=C2C(=O)OC3)cc1 (stereo not given) |  | inactive: -9.63% |  |
| CCN(CC)C(=O)c1coc(COc2ccc3c(c2)C(c2ccc(C)cc2)N(C(=O)C2CC2)CC3)n1 (stereo not given) |  |  | inactive |
| CCOC(=O)C1(Cc2ccc(F)cc2F)CCCN(S(=O)(=O)c2c(C)noc2C)C1 (stereo not given) | inconclusive: 20 µM [inhibitor, single point] |  |  |
| O=C(NCc1ccco1)N1CC(c2noc(C3CCCN3CC3CC3)n2)C1 (stereo not given) |  |  | inactive |
| OC[C@H]1CN(Cc2ccc(-n3ccnc3)cc2)C[C@H]1CN1CCCCC1 | inconclusive: 1.58 µM [inhibitor, full curve, poor fit] |  |  |
| Cc1ncccc1C(=O)N1CCC(N2C(=O)C3(CCCC3)C2c2ccccc2)CC1 (stereo not given) |  |  | inactive |
| COc1cc(CNC(=O)c2ccc3nc(Cc4ccccc4)oc3c2)cc(OC)c1OC | inconclusive: 20 µM [inhibitor, single point] |  |  |
| O=C(CN1C(=O)NC2(CCOCC2)C1=O)Nc1cccc(F)c1 |  | inactive: 87% |  |
| COc1ccc(OC)c(C2CC(=O)c3c([nH]c(C(=O)OCc4ccc(C)cc4)c3C)C2)c1 (stereo not given) | inconclusive: 7.94 µM [inhibitor, partial curve, poor fit] |  |  |
| CCC(=O)N1Cc2ccccc2CC2(CCCN(Cc3ccccn3)C2)C1 (stereo not given) | inconclusive: 7.94 µM [inhibitor, partial curve, poor fit] |  |  |
| CC(C)(C)C(=O)N1CCC(c2nn(-c3ccc(F)cc3)c(=O)[nH]2)CC1 |  |  | inactive [at 44.1 µM] |
| Cc1ccccc1OCCn1cc(C(=O)c2ccco2)c2ccccc21 | active: 1.26 µM |  |  |
| O=C(CN1C(=O)COc2ccc(S(=O)(=O)N3CCCCCC3)cc21)N1CCN(c2ccc(F)cc2)CC1 | inconclusive: 11.2 µM [inhibitor, single point] |  |  |
| COc1ccc(-c2cc3nc(C)c(CCC(=O)NCCc4ccc(Cl)cc4)c(C)n3n2)c(OC)c1 | inconclusive: 15.8 µM [inhibitor, single point] |  |  |
| Cc1ccc(Cn2c(=O)c3cccnc3n(Cc3ccc(C)cc3)c2=O)cc1 |  | inactive: -7.89% |  |
| Cn1ncc(CN2CCc3nc(-c4ccc(F)cc4F)[nH]c3C2)c1C1CC1 | active: 11.2 µM |  |  |
| CCn1nccc1C(=O)N1CCCC(c2nnnn2-c2ccccc2)C1 (stereo not given) |  | inactive: -14.3% |  |
| CCOC(=O)N1CCC(NC(=O)c2cnn(-c3ccc(OC)cc3)c2C2CCN(C(=O)OC(C)(C)C)CC2)CC1 | active: 8.91 µM |  |  |
| Cc1ccccc1OCC1CN(CC(C)C)C(=O)c2c(ccnc2-c2ccc(OCC(=O)O)cc2)O1 (stereo not given) |  | inactive: 20% |  |
| Cc1cc(F)ccc1Nc1ncncc1-c1nc(-c2ccccc2)no1 |  |  | inactive |
| CCOc1ccc(CC(=O)N2CCCN(c3cc(-c4ccccc4)[nH]n3)CC2)cc1OCC |  | inactive: -14.3% |  |

| Compound | Potency | activity, negative = inhibition | outcome |
| --- | --- | --- | --- |
| CC(C)CC(=O)N[C@H](C)c1onc(-c2ccc(F)cc2)c1C(=O)O |  | inactive: -9.66% [at 44.1 µM] |  |
| COC(=O)[C@@H]1Cc2c([nH]c3ccccc23)[C@H]2C[C@H](NCc3cccs3)C[C@@H](c3ccccc3)N21 | active: 7.94 µM |  |  |
| Cc1noc2c(-c3cccc(O)c3)cc(-c3cccs3)nc12 | inconclusive: 31.6 µM [inhibitor, single point] |  |  |
| COCCC(=O)N[C@H]1CC[C@]2(C)CCC([C@H](C)C(=O)N(C)Cc3ccccc3)[C@H](O)[C@H]2[C@@H]1C (stereo not given in full) | inconclusive: 10 µM [inhibitor, single point] |  |  |
| Cc1cc(C)c(NC(=O)Cn2c(=O)oc3cc(S(=O)(=O)N4CCCCCC4)ccc32)c(C)c1 | inconclusive: 10 µM [inhibitor, single point] |  |  |
| CCOc1ccc(NC(=O)c2c(C)oc3nc(C)nc(N4CCCC4)c23)cc1 |  |  | inactive |
| Cc1noc(C)c1-c1cc(-c2ccccc2)cn2cncc12 | active: 5.62 µM |  |  |
| Cc1ccc(CNC(=O)c2ccc(CSc3nc4ccncc4n3Cc3ccc(C)cc3)cc2)cc1 | inconclusive: 17.8 µM [inhibitor, single point] |  |  |
| CC(C)Cc1nc(CN(C)C(=O)C2CCOc3ccccc3C2)no1 (stereo not given) |  | inactive: -8.34% |  |
| O=C(NCCc1ccc(Cl)cc1)C1CCN(Cc2cc3ccccc3n2Cc2ccccc2)CC1 | inconclusive: 17.8 µM [inhibitor, single point] |  |  |
| Cc1ccc(Cc2nc3ccccc3nc2SCC(=O)N2CCC(C)CC2)cc1 | active: 10 µM |  |  |
| Cc1ccc(-n2nc(C)c3c(C)c(CCC(=O)NC(C)c4ccccc4)c(C)nc32)cc1 (stereo not given) | inconclusive: 3.98 µM [inhibitor, single point] |  |  |
| Fc1ccc(CN2CCc3nc(N4CCN(c5ccccc5F)CC4)ncc3C2)c(F)c1 | inconclusive: 8.91 µM [inhibitor, partial curve] |  |  |
| O=C(N[C@H]1CCN2C(=O)N(c3cccc4nsnc34)C(=O)[C@@H]2C1)c1ccnc(Cl)c1 |  |  | inactive |
| CCC(C)NC(=O)c1cc(Sc2cccc(Cl)c2)nc2ccccc12 (stereo not given) | inconclusive: 10 µM [inhibitor, single point] |  |  |
| Cc1nc(-c2c3n(c(=O)n(Cc4ccc(OC(F)(F)F)cc4)c2=O)CCCC3)no1 | inconclusive: 0.891 µM [inhibitor, full curve, poor fit] |  |  |
| CCCn1c2ccccc2c2cnn(CC(=O)NCCCN3CCCCC3CC)c(=O)c21 (stereo not given) | inconclusive: 8.91 µM [inhibitor, partial curve] |  |  |
| CC1CCN(C(=O)CCC[C@@H]2[C@H]3CCCN4CCC[C@@H](CN2C)[C@@H]34)CC1 | inconclusive: 5.62 µM [inhibitor, partial curve, poor fit] |  |  |
| COc1cc(C)sc1C(=O)NCC1CCN(c2cnn(C)c(=O)c2)C1 (stereo not given) | inconclusive: 10 µM [inhibitor, single point] |  |  |
| O=C(NCc1ccccc1)N1CCC[C@H](n2c(=O)n(CC3CC3)c3cccnc32)C1 | inconclusive: 17.8 µM [inhibitor, single point] |  |  |
| COc1ccc(NC(=O)c2cc3c(-c4ccccc4F)nn(C)c3s2)c(OC)c1 | inconclusive: 11.2 µM [inhibitor, single point] |  |  |
